From the supplement of paper PMC13016719

What was measured:
Experiment in all cases: Reference broth microdilution (once per isolate) and two commercial panels; inhibitor fixed at 4 µg/mL.
imipenem = compound: C[C@@H](O)[C@H]1C(=O)N2C(C(=O)O)=C(SCCNC=N)C[C@H]12 [imipenem]; details: reference broth microdilution
ceftolozane = compound: Cn1c(N)c(NC(=O)NCCN)c[n+]1CC1=C(C(=O)[O-])N2C(=O)[C@@H](NC(=O)/C(=N\OC(C)(C)C(=O)O)c3nsc(N)n3)[C@H]2SC1 [ceftolozane] (with: tazobactam 4 µg/mL)
ceftazidime = compound: CC(C)(O/N=C(\C(=O)N[C@@H]1C(=O)N2C(C(=O)[O-])=C(C[n+]3ccccc3)CS[C@H]12)c1csc(N)n1)C(=O)O [ceftazidime] (with: avibactam 4 µg/mL)

| Test System | MIC (imipenem) [µg/mL] | MIC (ceftolozane; BD Phoenix panel) [µg/mL] | MIC (ceftolozane; Sensititre panel) [µg/mL] | MIC (ceftolozane; reference broth microdilution) [µg/mL] | MIC (ceftazidime; BD Phoenix panel) [µg/mL] | MIC (ceftazidime; Sensititre panel) [µg/mL] | MIC (ceftazidime; reference broth microdilution) [µg/mL] |
| --- | --- | --- | --- | --- | --- | --- | --- |
| Pseudomonas aeruginosa isolate 50 (PDC allele: blaPDC-1) | 2 | 2 | 2 | 2 | 2 | ≤ 4 | ≤ 4 |
| Pseudomonas aeruginosa isolate 113 (PDC allele: blaPDC-5) | 2 | 2 | 4 | 4 | 4 | ≤ 4 | ≤ 4 |
| Pseudomonas aeruginosa isolate 129 (PDC allele: blaPDC-11) | 2 | 2 | ≤ 1 | 2 | 8 | ≤ 4 | 8 |
| Pseudomonas aeruginosa isolate 134 (PDC allele: blaPDC) | ≤ 1 | 2 | ≤ 1 | 2 | 4 | ≤ 4 | ≤ 4 |
| Pseudomonas aeruginosa isolate 21 (PDC allele: blaPDC-3) | ≤ 1 | ≤ 1 | ≤ 1 | ≤ 1 | 4 | ≤ 4 | ≤ 4 |
| Pseudomonas aeruginosa isolate 114 (PDC allele: blaPDC-46) | ≤ 1 | ≤ 1 | ≤ 1 | ≤ 1 | 2 | ≤ 4 | ≤ 4 |
| Pseudomonas aeruginosa isolate 132 (PDC allele: blaPDC-8) | ≤ 1 | ≤ 1 | – | 2 | 2 | – | ≤ 4 |
| Pseudomonas aeruginosa isolate 7 (PDC allele: blaPDC, ftsI change: ftsI_R504C) | ≤ 1 | > 8 | – | > 8 | > 8 | – | 16 |
| Pseudomonas aeruginosa isolate 3 (PDC allele: blaPDC-3) | ≤ 1 | ≤ 1 | – | 2 | 2 | – | ≤ 4 |
| Pseudomonas aeruginosa isolate 183 (PDC allele: blaPDC-266) | > 8 | 4 | 4 | 4 | 4 | 8 | 8 |
| Pseudomonas aeruginosa isolate 110 (PDC allele: blaPDC-30) | > 8 | ≤ 1 | – | 2 | 2 | – | ≤ 4 |
| Pseudomonas aeruginosa isolate 180 (PDC allele: blaPDC-31) | ≤ 1 | ≤ 1 | – | ≤ 1 | 4 | – | ≤ 4 |
| Pseudomonas aeruginosa isolate 161 (PDC allele: blaPDC-31) | > 8 | ≤ 1 | – | ≤ 1 | 8 | – | 8 |
| Pseudomonas aeruginosa isolate 108 (PDC allele: blaPDC-19a) | 2 | 2 | 4 | 2 | 4 | 8 | 8 |
| Pseudomonas aeruginosa isolate 142 (PDC allele: blaPDC-1) | > 8 | 2 | – | 2 | 8 | – | 8 |
| Pseudomonas aeruginosa isolate 151 (PDC allele: blaPDC-34) | 8 | 2 | – | 2 | 2 | – | ≤ 4 |
| Pseudomonas aeruginosa isolate 170 (PDC allele: blaPDC-34) | 8 | ≤ 1 | – | 2 | 1 | – | ≤ 4 |
| Pseudomonas aeruginosa isolate 123 (PDC allele: blaPDC-8) | 2 | 2 | – | ≤ 1 | 4 | – | ≤ 4 |
| Pseudomonas aeruginosa isolate 12 (PDC allele: blaPDC-34) | ≤ 1 | 2 | – | 2 | 8 | – | 8 |

| Test System | MIC (imipenem) [µg/mL] | MIC (ceftolozane; BD Phoenix panel) [µg/mL] | MIC (ceftolozane; Sensititre panel) [µg/mL] | MIC (ceftolozane; reference broth microdilution) [µg/mL] | MIC (ceftazidime; BD Phoenix panel) [µg/mL] | MIC (ceftazidime; Sensititre panel) [µg/mL] | MIC (ceftazidime; reference broth microdilution) [µg/mL] |
| --- | --- | --- | --- | --- | --- | --- | --- |
| Pseudomonas aeruginosa isolate 16 (PDC allele: blaPDC-30) | 4 | 2 | 2 | ≤ 1 | 4 | ≤ 4 | ≤ 4 |
| Pseudomonas aeruginosa isolate 149 (PDC allele: blaPDC-5) | 8 | 4 | – | 4 | 2 | – | 8 |
| Pseudomonas aeruginosa isolate 143 (PDC allele: blaPDC-5) | 2 | 2 | – | ≥ 16 | > 8 | – | 8 |
| Pseudomonas aeruginosa isolate 131 (PDC allele: blaPDC-8) | 8 | ≤ 1 | ≤ 1 | ≤ 1 | 2 | ≤ 4 | 8 |
| Pseudomonas aeruginosa isolate 33 (PDC allele: blaPDC-1) | 2 | – | ≤ 1 | ≤ 1 | – | ≤ 4 | ≤ 4 |
| Pseudomonas aeruginosa isolate 147 (PDC allele: blaPDC-5) | > 8 | ≤ 1 | 4 | 4 | 1 | 8 | ≤ 4 |
| Pseudomonas aeruginosa isolate 173 (PDC allele: blaPDC-1, ftsI change: ftsI_R504C) | > 8 | 8 | – | ≥ 16 | > 8 | – | ≥ 32 |
| Pseudomonas aeruginosa isolate 39 (PDC allele: blaPDC-10) | > 8 | 4 | 8 | 4 | 8 | 16 | 8 |
| Pseudomonas aeruginosa isolate 172 (PDC allele: blaPDC-5) | 2 | ≤ 1 | – | ≤ 1 | > 8 | – | 16 |
| Pseudomonas aeruginosa isolate 6 (PDC allele: blaPDC-24) | 4 | 2 | 8 | 4 | 4 | 16 | 16 |
| Pseudomonas aeruginosa isolate 29 (ESBL gene: blaVEB-9, PDC allele: blaPDC-11, carbapenemase gene: blaNDM-1) | > 8 | > 8 | > 8 | ≥ 16 | > 8 | > 16 | ≥ 32 |
| Pseudomonas aeruginosa isolate 181 (PDC allele: blaPDC-28) | 4 | ≤ 1 | 2 | 2 | 2 | ≤ 4 | ≤ 4 |
| Pseudomonas aeruginosa isolate 127 (PDC allele: blaPDC-1) | 2 | 2 | – | 2 | 2 | – | ≤ 4 |
| Pseudomonas aeruginosa isolate 19 (PDC allele: blaPDC-46) | ≤ 1 | ≤ 1 | – | ≤ 1 | 4 | – | ≤ 4 |
| Pseudomonas aeruginosa isolate 158 (PDC allele: blaPDC-56) | 4 | ≤ 1 | – | ≤ 1 | 8 | – | 8 |
| Pseudomonas aeruginosa isolate 162 (PDC allele: blaPDC-5) | > 8 | 2 | 4 | 4 | 4 | 8 | ≤ 4 |
| Pseudomonas aeruginosa isolate 79 (PDC allele: blaPDC-16) | > 8 | ≤ 1 | – | ≤ 1 | 2 | – | ≤ 4 |
| Pseudomonas aeruginosa isolate 99 (PDC allele: blaPDC-364) | ≤ 1 | ≤ 1 | – | ≤ 1 | 8 | – | 8 |
| Pseudomonas aeruginosa isolate 102 (PDC allele: blaPDC-3) | > 8 | ≤ 1 | – | ≤ 1 | 8 | – | 8 |

| Test System | MIC (imipenem) [µg/mL] | MIC (ceftolozane; BD Phoenix panel) [µg/mL] | MIC (ceftolozane; Sensititre panel) [µg/mL] | MIC (ceftolozane; reference broth microdilution) [µg/mL] | MIC (ceftazidime; BD Phoenix panel) [µg/mL] | MIC (ceftazidime; Sensititre panel) [µg/mL] | MIC (ceftazidime; reference broth microdilution) [µg/mL] |
| --- | --- | --- | --- | --- | --- | --- | --- |
| Pseudomonas aeruginosa isolate 119 (PDC allele: blaPDC-1) | 8 | ≤ 1 | ≤ 1 | ≤ 1 | 2 | ≤ 4 | ≤ 4 |
| Pseudomonas aeruginosa isolate 125 (PDC allele: blaPDC-56) | 2 | 2 | – | ≤ 1 | 8 | – | ≤ 4 |
| Pseudomonas aeruginosa isolate 155 (PDC allele: blaPDC-3) | 2 | ≤ 1 | ≤ 1 | ≤ 1 | > 8 | 8 | 16 |
| Pseudomonas aeruginosa isolate 171 (PDC allele: blaPDC-24) | > 8 | 2 | 8 | 8 | > 8 | > 16 | ≥ 32 |
| Pseudomonas aeruginosa isolate 182 (ESBL gene: blaPAC-1, PDC allele: blaPDC-36) | > 8 | > 8 | – | ≥ 16 | > 8 | – | ≥ 32 |
| Pseudomonas aeruginosa isolate 150 (PDC allele: blaPDC-24) | 2 | ≤ 1 | ≤ 1 | ≤ 1 | 8 | 8 | ≤ 4 |
| Pseudomonas aeruginosa isolate 27 (PDC allele: blaPDC-3) | 4 | 2 | – | 2 | 2 | – | ≤ 4 |
| Pseudomonas aeruginosa isolate 20 (PDC allele: blaPDC-3) | 4 | 2 | – | 8 | 4 | – | 8 |
| Pseudomonas aeruginosa isolate 41 (PDC allele: blaPDC-1, ftsI change: ftsI_R504C) | > 8 | 4 | – | 4 | > 8 | – | ≥ 32 |
| Pseudomonas aeruginosa isolate 184 (PDC allele: blaPDC-24) | > 8 | 2 | 8 | 8 | 4 | 16 | 16 |
| Pseudomonas aeruginosa isolate 90 (PDC allele: blaPDC-71) | 8 | ≤ 1 | ≤ 1 | 4 | 2 | ≤ 4 | ≤ 4 |
| Pseudomonas aeruginosa isolate 85 (PDC allele: blaPDC-3, ftsI change: ftsI_R504C) | > 8 | 4 | 4 | 2 | > 8 | 16 | 16 |
| Pseudomonas aeruginosa isolate 76 (PDC allele: blaPDC-15) | 4 | ≤ 1 | – | ≤ 1 | 8 | 8 | 8 |
| Pseudomonas aeruginosa isolate 47 (PDC allele: blaPDC-3) | 8 | 2 | – | 8 | 8 | – | ≥ 32 |
| Pseudomonas aeruginosa isolate 58 (PDC allele: blaPDC-1) | 8 | 2 | 4 | 4 | 8 | 16 | 16 |
| Pseudomonas aeruginosa isolate 73 (PDC allele: blaPDC-34) | ≤ 1 | ≤ 1 | – | ≤ 1 | 1 | – | ≤ 4 |
| Pseudomonas aeruginosa isolate 157 (PDC allele: blaPDC-1, ftsI change: ftsI_R504C) | > 8 | 2 | – | 4 | > 8 | – | ≥ 32 |
| Pseudomonas aeruginosa isolate 15 (PDC allele: blaPDC-5) | 2 | 2 | – | 2 | > 8 | – | 16 |
| Pseudomonas aeruginosa isolate 38 (PDC allele: blaPDC-364) | > 8 | ≤ 1 | – | ≤ 1 | 8 | – | 8 |

MIC of multidrug-resistant clinical P. aeruginosa isolates by reference broth microdilution, Sensititre or Phoenix panel; µg/mL of the β-lactam, with the inhibitor fixed at 4 µg/mL where named; higher = less susceptible; each panel covers only a few steps. No active / inactive call per row; the paper applies CLSI M100 breakpoints. The methods often differ by one or more steps on the same isolate. Several isolates can come from one patient. PDC is the chromosomal AmpC β-lactamase of the species; the number names its allele. Isolates are numbered anew.
